Test results published in PubChem BioAssay (NCATS).
Where “and” joins values, the source holds several entries; their conditions need not be identical. Equal values may be shown once. This list was built around the results that the source calls inconclusive (neither active nor inactive); the mix of calls is not that of the screen. Where the call is inconclusive, the potency comes from a doubtful curve fit. Calls of active or inactive are those of the source. The call rests on the fitted dose curve; in most records, active means well fitted inhibition curve with a large enough effect; inconclusive means small, poorly fitted or top-dose-only effect; inactive means no such curve, though single readings can be large or run the other way.

molecular target: N-terminal Xaa-Pro-Lys N-methyltransferase 1 (Homo sapiens) (UniProt Q9BV86); assay: qHTS Assay for Inhibitors of N-terminal methyltransferase 1 (NTMT1): LOPAC validation of the NTMT1 SAHH-coupled ThioGlo3 Assay (AID 1347143); settings: recombinant NTMT1, SAHH-coupled ThioGlo3 fluorescence; series mostly up to 114 µM;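 further: SAH from peptide methylation measured as thiol fluorescence via SAHH coupling and ThioGlo3; nearly all actives have a fitted effect of over 70% in size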
In short: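 NTMT1 125nM + cpds (various conc.), 1 min RT; add SAM 100uM/SAHH 10uM/ThioGlo3 15uM (addition mix). SAHH-coupled thiol detection, Ex340/Em450, t0 and 30 min RT; signal normalized to background. LOPAC 1280-cpd pilot.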
Potency means the concentration at half of the fitted maximal effect; tags describe the fitted curve by direction and shape.

Sequence of UniProt Q9BV86 (Q9BV86 whole entry, looked up): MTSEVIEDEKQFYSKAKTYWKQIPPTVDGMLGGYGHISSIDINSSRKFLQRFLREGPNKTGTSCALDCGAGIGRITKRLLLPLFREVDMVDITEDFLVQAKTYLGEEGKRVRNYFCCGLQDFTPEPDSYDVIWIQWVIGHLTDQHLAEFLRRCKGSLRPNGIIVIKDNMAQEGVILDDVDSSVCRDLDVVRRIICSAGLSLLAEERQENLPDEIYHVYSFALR

SMILES | Potency
O=c1c(-c2ccc(O)cc2)coc2cc(O)cc(O)c12 | inconclusive: 50.1 µM [inhibitor, partial curve]
CN(C)c1ccc(/C=C2\C(=O)Nc3ccccc32)cc1 | inconclusive: 14.1 µM [inhibitor, full curve]
N#C/C(=C\c1ccc(O)c(O)c1)C(=O)c1ccc(O)c(O)c1 | active: 31.6 µM
Cc1cccc(/C=C/c2ccccc2)n1 | inconclusive: 50.1 µM [inhibitor, partial curve]
C[C@](N)(Cc1ccc(O)c(O)c1)C(=O)O | inconclusive: 56.2 µM [inhibitor, partial curve]
O=Nc1c(-c2c(O)[nH]c3cc(Br)ccc23)[nH]c2ccccc12 | active: 14.1 µM
Cc1cc(C)c(/C=C2\C(=O)Nc3ccccc32)[nH]1 | inconclusive: 8.91 µM [inhibitor, partial curve]
COc1ccc(/C=C/C(=O)Nc2ccccc2C(=O)O)cc1OC | inconclusive: 63.1 µM [inhibitor, partial curve, poor fit]
O=C(O)c1cc([N+](=O)[O-])ccc1NCCCc1ccccc1 | inconclusive: 56.2 µM [inhibitor, partial curve]
O=C(/C=C/c1ccc(O)cc1)c1ccc(O)cc1O | active: 44.7 µM

molecular target: Furin (Homo sapiens) (UniProt P09958); assay: Furin counterscreen qHTS for Zika virus inhibitors (AID 1347149); settings: furin enzymatic counterscreen, fluorogenic substrate; series mostly up to 57.5 µM; further: nearly all actives have a fitted effect of over 70% in size
In short: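 Counterscreen measures cleavage of 2 microM BOC-RVRR-AMC, below its ~15 microM Km, by 5 nM full-length human furin at pH 7.0 after a 15-min compound preincubation. Inhibition derives from the 15-min fluorescence increase at 37C.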

Sequence of UniProt P09958 (P09958 whole entry, looked up): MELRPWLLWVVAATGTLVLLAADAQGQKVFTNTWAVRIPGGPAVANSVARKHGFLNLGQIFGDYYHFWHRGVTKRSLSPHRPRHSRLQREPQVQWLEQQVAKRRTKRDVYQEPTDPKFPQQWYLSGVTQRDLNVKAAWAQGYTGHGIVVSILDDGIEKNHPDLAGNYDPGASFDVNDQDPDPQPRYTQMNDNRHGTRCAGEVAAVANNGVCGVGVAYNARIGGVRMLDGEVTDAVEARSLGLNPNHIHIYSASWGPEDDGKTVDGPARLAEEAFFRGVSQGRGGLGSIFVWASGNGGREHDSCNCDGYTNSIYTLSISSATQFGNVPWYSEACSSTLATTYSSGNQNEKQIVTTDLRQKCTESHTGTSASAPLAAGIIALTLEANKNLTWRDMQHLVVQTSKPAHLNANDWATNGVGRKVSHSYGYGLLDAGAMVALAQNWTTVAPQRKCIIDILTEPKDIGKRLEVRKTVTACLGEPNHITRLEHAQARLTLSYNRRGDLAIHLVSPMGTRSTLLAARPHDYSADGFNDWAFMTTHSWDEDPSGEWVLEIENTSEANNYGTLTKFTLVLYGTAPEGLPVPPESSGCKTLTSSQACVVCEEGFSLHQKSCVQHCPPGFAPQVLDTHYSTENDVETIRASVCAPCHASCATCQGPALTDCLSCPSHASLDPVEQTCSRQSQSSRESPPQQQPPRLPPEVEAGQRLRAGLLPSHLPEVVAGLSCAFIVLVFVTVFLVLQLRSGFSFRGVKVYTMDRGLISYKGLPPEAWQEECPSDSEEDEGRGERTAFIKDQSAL

SMILES | Potency
Nc1c(S(=O)(=O)O)cc(Nc2ccc(Nc3nc(Cl)nc(Nc4ccc(S(=O)(=O)O)cc4)n3)c(S(=O)(=O)O)c2)c2c1C(=O)c1ccccc1C2=O | inconclusive: 16.7 µM [inhibitor, full curve]
O=C1NC(=O)/C(=C/c2ccc3c(c2)OC(F)(F)O3)S1 | inactive
Cc1ccc(C(=O)Nc2ccc(S(=O)(=O)O)c3cc(S(=O)(=O)O)cc(S(=O)(=O)O)c23)cc1NC(=O)c1cccc(NC(=O)Nc2cccc(C(=O)Nc3cc(C(=O)Nc4ccc(S(=O)(=O)O)c5cc(S(=O)(=O)O)cc(S(=O)(=O)O)c45)ccc3C)c2)c1 | inconclusive: 26.4 µM [inhibitor, partial curve] and inconclusive: 11.8 µM [inhibitor, full curve] and inconclusive: 8.35 µM [inhibitor, full curve]
O=c1c(O)c(-c2ccc(O)c(O)c2)oc2cc(O)ccc12 | inconclusive: 52.7 µM [inhibitor, partial curve]
Cc1c(OCC(F)(F)F)ccnc1CS(=O)c1nc2ccccc2[nH]1 (configuration not stated) | inconclusive: 27 µM [inhibitor, partial curve]
O=c1cc(-c2ccccc2)oc2cc(O)c(O)c(O)c12 | inconclusive: 27.1 µM [inhibitor, partial curve, poor fit]
CN(C)c1cc(NC(=O)CNC(C)(C)C)c(O)c2c1C[C@@H]1C[C@H]3[C@H](N(C)C)C(=O)C(C(N)=O)=C(O)[C@@]3(O)C(=O)C1=C2O | inconclusive: 30.4 µM [inhibitor, partial curve, poor fit]
O=C(Nc1cccc(C(=O)Nc2ccc(S(=O)(=O)O)c3cc(S(=O)(=O)O)cc(S(=O)(=O)O)c23)c1)Nc1cccc(C(=O)Nc2ccc(S(=O)(=O)O)c3cc(S(=O)(=O)O)cc(S(=O)(=O)O)c23)c1 | inconclusive: 46.9 µM [inhibitor, partial curve] and inconclusive: 28.9 µM [inhibitor, partial curve, poor fit]
CC(C)c1ccc2c(c1)c(SC(C)(C)C)c(CC(C)(C)C(=O)O)n2Cc1ccc(Cl)cc1 | inconclusive: 34.1 µM [inhibitor, partial curve, poor fit]

system: Zika virus NS2B-NS3 protease (unlinked); assay: Optimization of GU AMC qHTS for Zika virus inhibitors: Unlinked NS2B-NS3 protease assay (AID 1347151); settings: recombinant ZIKV NS2B-NS3 protease, fluorogenic AMC substrate; series mostly up to 52.5 µM; further: nearly all actives have a fitted effect of over 80% in size
In short: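 Fluorescence read-out (340 nm ex / 450 nm em) of AMC peptide cleavage, taken immediately and after 15 min at room temperature (~20% conversion). Enzyme was the unlinked NS2B–NS3 complex at 25 nM in Tris pH 8.0 buffer.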

SMILES | Potency
O=c1c(-c2ccc(O)cc2)coc2cc(O)cc(O)c12 | inactive
CN(C)c1ccc(/C=C2\C(=O)Nc3ccccc32)cc1 | inconclusive: 2.99 µM [inhibitor, partial curve, poor fit]
N#C/C(=C\c1ccc(O)c(O)c1)C(=O)c1ccc(O)c(O)c1 | active: 1.19 µM
COc1ccc(NC(=O)/C=C/c2ccc(Cl)cc2)cc1 | inconclusive: 26.7 µM [inhibitor, single point]
Cc1cccc(/C=C/c2ccccc2)n1 | inconclusive: 26.7 µM [inhibitor, partial curve, poor fit]
CC(C)Cc1ccc([C@H](C)C(=O)O)cc1 | inactive
O=C(CCCN1CCC(O)(c2ccc(Cl)cc2)CC1)c1ccc(F)cc1 | inactive
O=C1NC(=O)/C(=C/c2ccc3c(c2)OC(F)(F)O3)S1 | inconclusive: 29.9 µM [inhibitor, partial curve]
O=c1c2ccccc2nc2n1CCc1c-2[nH]c2ccccc12 | active: 26.7 µM
C[C@](N)(Cc1ccc(O)c(O)c1)C(=O)O | inactive
O=Nc1c(-c2c(O)[nH]c3cc(Br)ccc23)[nH]c2ccccc12 | inconclusive: 0.844 µM [inhibitor, full curve]
Cc1cc(C)c(/C=C2\C(=O)Nc3ccccc32)[nH]1 | inconclusive: 0.67 µM [inhibitor, partial curve]
Cc1c(OCC(F)(F)F)ccnc1CS(=O)c1nc2ccccc2[nH]1 (configuration not stated) | inconclusive: 26.7 µM [inhibitor, partial curve]
C=Cc1c(C)c2cc3[nH]c(cc4nc(cc5nc(cc1[nH]2)C(C)=C5CCC(=O)O)C(CCC(=O)O)=C4C)c(C)c3C=C | inconclusive: 23.8 µM [inhibitor, single point]
O=c1cc(N2CCOCC2)oc2c(-c3ccccc3)cccc12 | active: 26.7 µM
C[C@H](NC(=O)C(=O)Nc1ccccc1C(C)(C)C)C(=O)N[C@@H](CC(=O)O)C(=O)COc1c(F)c(F)cc(F)c1F | inactive
CCN(CC)CCCC(C)Nc1c2ccc(Cl)cc2nc2ccc(OC)cc12 (configuration not stated) | active: 23.8 µM
COc1ccc(/C=C/C(=O)Nc2ccccc2C(=O)O)cc1OC | inconclusive: 15 µM [inhibitor, partial curve]
O=Nc1c(-c2c(O)[nH]c3ccccc23)[nH]c2ccccc12 | inconclusive: 3.77 µM [inhibitor, full curve]
O=c1cc(-c2ccccc2)oc2cc(O)c(O)c(O)c12 | active: 2.71 µM
Cc1ccc(S(=O)(=O)/C=C/C#N)cc1 | inactive
O=C(O)c1cc([N+](=O)[O-])ccc1NCCCc1ccccc1 | inconclusive: 21.2 µM [inhibitor, single point]
O=[N+]([O-])c1ccc2c(c1)S(=O)(=O)C=C2 | inactive
O=C(Nc1cccc(C(=O)Nc2ccc(S(=O)(=O)O)c3cc(S(=O)(=O)O)cc(S(=O)(=O)O)c23)c1)Nc1cccc(C(=O)Nc2ccc(S(=O)(=O)O)c3cc(S(=O)(=O)O)cc(S(=O)(=O)O)c23)c1 | inconclusive: 29.9 µM [inhibitor, partial curve]
O=c1c(-c2ccc(O)cc2)coc2cc(O)ccc12 | active: 29.9 µM
O=C1C(SCCO)=C(SCCO)C(=O)c2ccccc21 | inconclusive: 18.9 µM [inhibitor, partial curve]
N[C@@H](Cc1c[nH]c2ccc(O)cc12)C(=O)O | inconclusive: 23.8 µM [inhibitor, single point]
O=C(/C=C/c1ccc(O)cc1)c1ccc(O)cc1O | inactive
